Data taken from US20170304236A1, “ANTIALLERGIC AGENT” (TOHOKU UNIVERSITY, priority 2015, published 2017).

Tested on: TSLP mRNA
Assay: TSLP mRNA expression in stimulated HaCaT cells (real-time PCR)
Conditions: TNF-α 100 ng/ml + IL-4 10 ng/ml stimulation, 16D10 10 and 100 μM, 4 hours
Experimental: HaCaT cells were suspended in 10% FBS-containing Dulbecco's MEM so as to have a cell count of 1.0×10^5 cells/mL, and the suspension was seeded into each well of a 12-well plate (Falcon (trademark)) at 1,000 μl per well, followed by culture at 37° C. under saturated humidity in the presence of 5% CO2 until the cells achieved 80% to 90% confluence in each well. The culture solution was removed, and the cells were washed once with PBS that had been warmed to 37° C. After that, 1 ml of 10% FBS-DMEM containing 16D10 (10 and 100 μM) and any of various stimulants [Poly(I:C) (50 μg/ml) (A), TNF-α (100 ng/ml) (B), and TNF-α (100 ng/ml)+IL-4 (10 ng/ml) (C)] was added, followed by further culture at 37° C. under saturated humidity in the presence of 5% CO2 for 4 hours. The final concentration of DMSO in each group was set to 0.1%.
After the culture, the culture solution was removed, and the cells were washed twice with PBS. After that, total RNA was extracted with RNAiso Plus. A reverse transcription reaction was performed with PrimeScript (trademark) RT Master Mix (Perfect Real Time) in accordance with an accompanying protocol. […] The threshold cycle (Ct) value of each sample was calculated by a 2nd derivative maximum method, and a relative calibration curve was created to confirm that amplification efficiency under PCR reaction conditions for each gene was close to 100%. […]

## COc1ccc(OC)c(/C=C/C(=O)c2cc(OC)c(OC)cc2CCNC(C)=O)c1 [16D10, (E)-N-[2-[2-[3-(2,5-dimethoxyphenyl)-1-oxo-2-propen-1-yl]-4,5-dimethoxyphenyl]ethyl]acetamide]
  expression of TSLP mRNA: suppressed
